The supplement of paper PMC8728848
The other results are listed elsewhere or left out.

Experiments:
Experiment in all cases: glycan array binding signal (z-score within array); higher = stronger binding
Conditions in all cases: glycan notation: IUPAC condensed, linker removed
[1] = target: Glc(b1-6)Glc
Method in brief: (§1)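 The binding signal is a Z-score computed within each array and averaged over linkers. Arrays of the same protein sequence at different concentrations or buffers were also averaged together. Data originate from 3228 arrays in the Consortium for Functional Glycomics database, kept only where the protein sequence was available.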

[2] = target: GlcA(b1-3)Gal
Method in brief: as §1

[3] = target: GlcA(b1-3)GlcNAc
Method in brief: as §1

[4] = target: GlcA(b1-6)Gal
Method in brief: as §1

[5] = target: GlcNAc(a1-3)Gal(b1-4)GlcNAc
Method in brief: as §1

[6] = target: GlcNAc(a1-4)Gal(b1-3)GlcNAc
Method in brief: as §1

[7] = target: GlcNAc(a1-4)Gal(b1-4)GalNAc
Method in brief: as §1

[8] = target: GlcNAc(a1-4)Gal(b1-4)GlcNAc
Method in brief: as §1

[9] = target: GlcNAc(a1-4)Gal(b1-4)GlcNAc(b1-3)Gal(b1-4)Glc
Method in brief: as §1

[10] = target: GlcNAc(a1-4)Gal(b1-4)GlcNAc(b1-3)Gal(b1-4)GlcNAc
Method in brief: as §1

[11] = target: GlcNAc(a1-4)Gal(b1-4)GlcNAc(b1-3)Gal(b1-4)GlcNAc(b1-3)Gal(b1-4)GlcNAc
Method in brief: as §1

[12] = target: GlcNAc(a1-4)Gal(b1-4)GlcNAc(b1-3)Gal(b1-4)[Fuc(a1-3)]GlcNAc(b1-3)Gal(b1-4)[Fuc(a1-3)]GlcNAc
Method in brief: as §1

[13] = target: GlcNAc(a1-6)Gal(b1-4)GlcNAc
Method in brief: as §1

[14] = target: GlcNAc(b1-2)Gal(b1-3)GalNAc
Method in brief: as §1

[15] = target: GlcNAc(b1-2)Man(a1-3)[GlcNAc(b1-2)Man(a1-6)]Man(b1-4)GlcNAc(b1-4)GlcNAc
Method in brief: as §1

[16] = target: GlcNAc(b1-2)Man(a1-3)[GlcNAc(b1-2)Man(a1-6)]Man(b1-4)GlcNAc(b1-4)[Fuc(a1-6)]GlcNAc
Method in brief: as §1

[17] = target: GlcNAc(b1-2)Man(a1-3)[GlcNAc(b1-4)][GlcNAc(b1-2)Man(a1-6)]Man(b1-4)GlcNAc(b1-4)GlcNAc
Method in brief: as §1

[18] = target: GlcNAc(b1-2)[GlcNAc(b1-4)]Man(a1-3)[GlcNAc(b1-2)Man(a1-6)]Man(b1-4)GlcNAc(b1-4)GlcNAc
Method in brief: as §1

[19] = target: GlcNAc(b1-2)[GlcNAc(b1-4)]Man(a1-3)[GlcNAc(b1-4)][GlcNAc(b1-2)Man(a1-6)]Man(b1-4)GlcNAc(b1-4)GlcNAc
Method in brief: as §1

[20] = target: GlcNAc(b1-2)[GlcNAc(b1-4)]Man(a1-3)[GlcNAc(b1-4)][GlcNAc(b1-2)[GlcNAc(b1-6)]Man(a1-6)]Man(b1-4)GlcNAc(b1-4)GlcNAc
Method in brief: as §1

[21] = target: GlcNAc(b1-2)[GlcNAc(b1-6)]Man(a1-6)[GlcNAc(b1-2)Man(a1-3)]Man(b1-4)GlcNAc(b1-4)GlcNAc
Method in brief: as §1

[22] = target: GlcNAc(b1-2)[GlcNAc(b1-6)]Man(a1-6)[GlcNAc(b1-2)Man(a1-3)][GlcNAc(b1-4)]Man(b1-4)GlcNAc(b1-4)GlcNAc
Method in brief: as §1

[23] = target: GlcNAc(b1-3)Gal
Method in brief: as §1

[24] = target: GlcNAc(b1-3)Gal(b1-3)GalNAc
Method in brief: as §1

[25] = target: GlcNAc(b1-3)Gal(b1-4)Glc
Method in brief: as §1

[26] = target: GlcNAc(b1-3)Gal(b1-4)GlcNAc
Method in brief: as §1

[27] = target: GlcNAc(b1-3)Gal(b1-4)GlcNAc(b1-3)Gal(b1-4)GlcNAc
Method in brief: as §1

[28] = target: GlcNAc(b1-3)GalNAc
Method in brief: as §1

[29] = target: GlcNAc(b1-3)Man
Method in brief: as §1

[30] = target: GlcNAc(b1-3)[GlcNAc(b1-4)][GlcNAc(b1-6)]GlcNAc
Method in brief: as §1

[31] = target: GlcNAc(b1-3)[GlcNAc(b1-6)]Gal(b1-4)GlcNAc
Method in brief: as §1

[32] = target: GlcNAc(b1-3)[GlcNAc(b1-6)]GalNAc
Method in brief: as §1

[33] = target: GlcNAc(b1-4)Gal(b1-4)GlcNAc
Method in brief: as §1

[34] = target: GlcNAc(b1-4)GlcNAc
Method in brief: as §1

[35] = target: GlcNAc(b1-4)GlcNAc(b1-4)GlcNAc
Method in brief: as §1

[36] = target: GlcNAc(b1-4)GlcNAc(b1-4)GlcNAc(b1-4)GlcNAc(b1-4)GlcNAc
Method in brief: as §1

[37] = target: GlcNAc(b1-4)GlcNAc(b1-4)GlcNAc(b1-4)GlcNAc(b1-4)GlcNAc(b1-4)GlcNAc
Method in brief: as §1

[38] = target: GlcNAc(b1-4)[GlcNAc(b1-6)]GalNAc
Method in brief: as §1

B1: SEX4 (Arabidopsis thaliana), Q944A8 (protein)
chain: TQAMGAVLTYRHELGMNYNFIRPDLIVGSCLQTPEDVDKLRKIGVKTIFCLQQDPDLEYFGVDISSIQAYAKKYSDIQHIRCEIRDFDAFDLRMRLPAVVGTLYKAVKRNGGVTYVHCTAGMGRAPAVALTYMFWVQGYKLMEAHKLLMSKRSCFPKLDAIRNATIDILTGLKRKTVTLTLKDKGFSRVEISGLDIGWGQRIPLTLGKGTGFWILKRELPEGQFEYKYIIDGEWTHNEAEPFIGPNKDGHTNNYAKVVDDPTSVDGTTRERLSSEDPELLEEERSKLIQFLETCSEAEV
Q: Which “glycan array binding signal (z-score)” value [1] does the source give for B1 here?
A: -0.555

Q: What about the “glycan array binding signal (z-score)” value [2] of the same binder?
A: -0.449

Q: What about the “glycan array binding signal (z-score)” value [3] of the same binder?
A: 16

Q: And the “glycan array binding signal (z-score)” value [4]?
A: -0.508

Q: And the “glycan array binding signal (z-score)” value [5]?
A: -0.508

Q: What about the “glycan array binding signal (z-score)” value [6] of the same binder?
A: -0.428

Q: What about the “glycan array binding signal (z-score)” value [7] of the same binder?
A: -0.28

Q: And the “glycan array binding signal (z-score)” value [8]?
A: -0.308

Q: What about the “glycan array binding signal (z-score)” value [9] of the same binder?
A: -0.299

Q: And the “glycan array binding signal (z-score)” value [10]?
A: -0.392

Q: What about the “glycan array binding signal (z-score)” value [11] of the same binder?
A: -0.144

Q: What about the “glycan array binding signal (z-score)” value [12] of the same binder?
A: 1.26

Q: And the “glycan array binding signal (z-score)” value [13]?
A: -0.576

Q: What about the “glycan array binding signal (z-score)” value [14] of the same binder?
A: -0.6

Q: What about the “glycan array binding signal (z-score)” value [15] of the same binder?
A: -0.02

Q: And the “glycan array binding signal (z-score)” value [16]?
A: 3.1

Q: What about the “glycan array binding signal (z-score)” value [17] of the same binder?
A: 0.722

Q: And the “glycan array binding signal (z-score)” value [18]?
A: -0.234

Q: And the “glycan array binding signal (z-score)” value [19]?
A: 0.008

Q: What about the “glycan array binding signal (z-score)” value [20] of the same binder?
A: -0.164

Q: What about the “glycan array binding signal (z-score)” value [21] of the same binder?
A: -0.387

Q: What about the “glycan array binding signal (z-score)” value [22] of the same binder?
A: -0.06

Q: And the “glycan array binding signal (z-score)” value [23]?
A: -0.595

Q: What about the “glycan array binding signal (z-score)” value [24] of the same binder?
A: -0.173

Q: And the “glycan array binding signal (z-score)” value [25]?
A: -0.216

Q: What about the “glycan array binding signal (z-score)” value [26] of the same binder?
A: -0.48

Q: What about the “glycan array binding signal (z-score)” value [27] of the same binder?
A: -0.42

Q: And the “glycan array binding signal (z-score)” value [28]?
A: -0.489

Q: What about the “glycan array binding signal (z-score)” value [29] of the same binder?
A: -0.575

Q: And the “glycan array binding signal (z-score)” value [30]?
A: -0.453

Q: What about the “glycan array binding signal (z-score)” value [31] of the same binder?
A: -0.547

Q: And the “glycan array binding signal (z-score)” value [32]?
A: -0.35

Q: What about the “glycan array binding signal (z-score)” value [33] of the same binder?
A: -0.575

Q: And the “glycan array binding signal (z-score)” value [34]?
A: -0.146

Q: What about the “glycan array binding signal (z-score)” value [35] of the same binder?
A: -0.388

Q: And the “glycan array binding signal (z-score)” value [36]?
A: -0.427

Q: What about the “glycan array binding signal (z-score)” value [37] of the same binder?
A: -0.533

Q: And the “glycan array binding signal (z-score)” value [38]?
A: -0.489
